# In the supplement of paper PMC12217912:
# The other results are listed elsewhere or left out. Sequences were assembled here from the parent chain. Inactive controls read about 0.05.
# B1: TEV protease; numbered along this chain (parent)
# chain: MGESLFKGPRDYNPISSSICHLTNESDGHTTSLYGIGFGPFIITNKHLFRRNNGTLVVQSLHGVFKVKDTTTLQQHLVDGRDMIIIRMPKDFPPFPQKLKFREPQREERICLVTTNFQTKSMSSMVSDTSCTFPSGDGIFWKHWIQTKDGQCGSPLVSTRDGFIVGIHSASNFTNTNNYFTSVPKNFMELLTNQEAQQWVSGWRLNADSVLWGGHKVFMVKPEEPFQPVKEATQL
# Variants of: B1
# Test: raw area under fraction-flipped curve 0-4 h after induction (AUC4h, not background-subtracted), DNA-recorder readout of cleavage of the substrate (dimensionless); higher = more cleavage of the substrate by the protease variant
# Settings: temperature: 34 °C; time window: 0-4 h after rhamnose induction
# Experimental: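 In vivo DNA recorder in E. coli TOP10(DE3) ΔrhaA at 34 °C. Each TEVp single-site mutant (parent TEVp 0) is paired with a single-site variant of the 7-mer TEVs (canonical ENLYFQ|S). The substrate sits between flexible linkers in a Bxb1-sfGFP-TEVs-SsrA fusion, so cleavage stabilises Bxb1 and speeds flipping of a recombination array, read by NGS. The value is the raw area under the fraction-flipped curve over 0-4 h after rhamnose induction (AUC4h), with ≥20 reads per time point. It is not background-subtracted; inactive controls average about 0.047.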
# 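Further: Bxb1 expression induced with 0.2% (w/v) L-rhamnose at OD600 near 0.5, cultures sampled hourly, flipped fraction per protease–substrate barcode pair counted by paired-end Illumina sequencing.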
Variant,area with substrate EALYFQS,area with substrate ECLYFQS,area with substrate EELYFQS,area with substrate EFLYFQS,area with substrate EGLYFQS,area with substrate EHLYFQS,area with substrate EILYFQS,area with substrate EKLYFQS,area with substrate ELLYFQS,area with substrate EMLYFQS,area with substrate EQLYFQS,area with substrate ESLYFQS,area with substrate EVLYFQS,area with substrate EWLYFQS,area with substrate EDLYFQS,area with substrate ERLYFQS,area with substrate EYLYFQS,area with substrate ETLYFQS,area with substrate EPLYFQS
P14E,0.0875,0.0879,0.141,0.122,0.124,0.082,0.0955,0.0697,0.0621,0.122,0.0959,0.0898,0.108,0.0822,,,,,
P14H,0.134,,,,,0.161,0.128,,0.1,0.0857,,0.113,0.1,,0.133,0.0925,0.117,,
P14K,0.0887,,0.111,,,,0.0753,,0.0821,0.0874,0.113,0.0844,0.0819,,0.128,0.0691,,0.0928,
I15M,0.104,0.0923,0.119,0.0923,0.0756,0.104,0.114,,0.083,0.106,,0.0856,0.0808,,,0.108,0.0839,,
I15P,0.066,0.0542,,0.102,,0.076,,0.0838,,,0.0719,0.0798,0.0675,0.0687,,0.0886,,0.094,0.0934
S17P,0.103,,0.107,,0.0727,,0.112,,0.1,0.0955,0.109,0.0958,0.0972,0.0929,0.105,0.0832,0.0912,0.101,0.116
S18Q,0.138,0.125,,0.108,0.115,,0.0463,0.0922,0.117,0.132,0.145,,0.105,,,,0.128,0.149,
I19W,0.0689,,0.048,,0.0553,0.0535,0.0523,0.0619,,,0.0601,0.0586,0.0348,0.0531,0.0215,0.0505,0.061,,
C20L,0.115,,0.118,0.0886,0.105,,0.0835,0.0825,,0.119,0.0945,0.0931,0.0752,0.0991,0.13,0.0894,0.0876,0.0915,0.132
C20W,0.0386,0.0395,0.0529,0.0167,0.0228,0.0484,0.0548,0.0614,0.0406,0.0542,0.0486,0.0581,,0.0456,,0.0504,,,0.0371
H21V,0.103,0.119,0.126,,0.0746,0.127,0.0751,0.102,0.0739,0.0774,0.114,0.101,0.0915,0.081,,0.0739,0.127,0.0999,0.112
L22C,0.109,0.0944,,,0.0947,0.0831,0.0688,0.0968,0.0853,0.0999,0.0858,0.0922,0.083,,,0.0895,0.0716,0.0698,
L22D,0.0468,,0.0516,,0.0429,0.0498,0.0451,0.0462,0.0444,,0.0617,0.0505,0.0484,0.0488,0.0544,0.0455,0.0437,,0.0441
